± gives the standard error. Variants at the floor of the assay are shown more often than the library holds them.
B1: glmS ribozyme (parent)
chain: AUAAAAGCGCCAGAACUACAGAAAUGUAGUUGACGAGGAGGAGGUUUAUCGAAUUUUCGGCGGAUGCCUCCAAA

Variants of: B1
Experiment: self-cleavage kobs at 2500 uM GlcN6P; higher = faster cleavage; RNA array
Conditions: with glucosamine-6-phosphate
Procedure, shortened: (§1)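 Weighted Michaelis–Menten fits across concentrations supplied kcat and KM, based on kobs from one- or two-exponential decay fits to normalised per-tile medians. The data came from barcoded ribozyme variants transcribed in situ by E. coli RNA polymerase on sequenced MiSeq chips and tracked at 37 °C by a hybridised Cy3 probe. Glucosamine-6-phosphate (40 μM to 10 mM) in HEPES/KCl/Mg(OAc)2 buffer was flowed in.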

Variant | self-cleavage kobs at 2500 uM GlcN6P [s⁻¹]
A42G A53U U55A G60A G63C C71A | < 1e-05
G35A G41A U54G | < 1e-05
G51C A52C | < 1e-05
A33U C34A G38A C50A C70G | 0.00153 ± 0.0004
C34U A36C A64C | < 1e-05
U55G G62U G63U | < 1e-05
G35U A52C U54G | < 1e-05
G43U G44U U49A U55A | < 1e-05
C34A G66A | < 1e-05
A36C G37A A39C C50U A53C | < 1e-05
U46A C50A U56A | < 1e-05
C58A G60U A64C | < 1e-05
C34A A52C C70U | < 1e-05
G40U G66A C70U | 0.0016 ± 0.00053
A36C G44U G59A G60U | < 1e-05
G44C U49A G60A G66U | < 1e-05
A42C G51A A64U C68G | < 1e-05
A42U C70A | 9.98e-05 ± 1.2e-05
U46G A52C C58A | < 1e-05
A39G G40U U54A | 0.000126 ± 6.2e-05

Variant | self-cleavage kobs at 2500 uM GlcN6P [s⁻¹]
A36G U47A G51U A53U C58G | < 1e-05
G37A G62C C70A | < 1e-05
G37U A39C U47C | < 1e-05
G43A A48U U54A C68G | < 1e-05
A42G A52C A53G U54G | < 1e-05
A36C U55A U65G | < 1e-05
G41A A42C | 6.51e-05 ± 1.8e-05
A33U U49C G51C A52C C67G | < 1e-05
G35U G40U C67G | < 1e-05
G37A G44U U55C U57G | < 1e-05
G41C U55C C67U | < 1e-05
G35U A42U G59U | < 1e-05
C34G G35A U49C | < 1e-05
G32U G37A A48U C61U | < 1e-05
G37A U49A A52G | < 1e-05
C34A A36C U47A G62C C68G | < 1e-05
G40A U49A | < 1e-05
G40A A52G C61A | < 1e-05
G41U U45A A52C G63U | < 1e-05

Variants of: B1
Experiment: self-cleavage kobs at 10000 uM GlcN6P; higher = faster cleavage; RNA array
Conditions: with glucosamine-6-phosphate
Procedure, shortened: as §1

Variant | self-cleavage kobs at 10000 uM GlcN6P [s⁻¹]
A36C G37A A39C C50U A53C | < 1e-05
C58A G60U A64C | < 1e-05
A42U C70A | 0.00012 ± 9.1e-06
G41A A42C | 3.53e-05 ± 1.3e-05
G37A U49A A52G | < 1e-05

— the supplement of paper PMC7125110
